Measured values from publication PMC4336329 (PLoS ONE, 2015).
The whole screen tested about 310,000 compounds, of which about 14,000 (4.5%) showed an effect of 50% or more. The effect is printed as a negative number. Some of the results follow.

target: human ether-à-go-go-related gene (hERG) potassium channel (human, UniProt Q12809); assay: primary screen, population patch clamp on CHO cells stably expressing hERG
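Note: peak tail current of the secondary pulse compared with the same well before compound.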

human ether-à-go-go-related gene (hERG) potassium channel, sequence (Q12809 whole entry, looked up): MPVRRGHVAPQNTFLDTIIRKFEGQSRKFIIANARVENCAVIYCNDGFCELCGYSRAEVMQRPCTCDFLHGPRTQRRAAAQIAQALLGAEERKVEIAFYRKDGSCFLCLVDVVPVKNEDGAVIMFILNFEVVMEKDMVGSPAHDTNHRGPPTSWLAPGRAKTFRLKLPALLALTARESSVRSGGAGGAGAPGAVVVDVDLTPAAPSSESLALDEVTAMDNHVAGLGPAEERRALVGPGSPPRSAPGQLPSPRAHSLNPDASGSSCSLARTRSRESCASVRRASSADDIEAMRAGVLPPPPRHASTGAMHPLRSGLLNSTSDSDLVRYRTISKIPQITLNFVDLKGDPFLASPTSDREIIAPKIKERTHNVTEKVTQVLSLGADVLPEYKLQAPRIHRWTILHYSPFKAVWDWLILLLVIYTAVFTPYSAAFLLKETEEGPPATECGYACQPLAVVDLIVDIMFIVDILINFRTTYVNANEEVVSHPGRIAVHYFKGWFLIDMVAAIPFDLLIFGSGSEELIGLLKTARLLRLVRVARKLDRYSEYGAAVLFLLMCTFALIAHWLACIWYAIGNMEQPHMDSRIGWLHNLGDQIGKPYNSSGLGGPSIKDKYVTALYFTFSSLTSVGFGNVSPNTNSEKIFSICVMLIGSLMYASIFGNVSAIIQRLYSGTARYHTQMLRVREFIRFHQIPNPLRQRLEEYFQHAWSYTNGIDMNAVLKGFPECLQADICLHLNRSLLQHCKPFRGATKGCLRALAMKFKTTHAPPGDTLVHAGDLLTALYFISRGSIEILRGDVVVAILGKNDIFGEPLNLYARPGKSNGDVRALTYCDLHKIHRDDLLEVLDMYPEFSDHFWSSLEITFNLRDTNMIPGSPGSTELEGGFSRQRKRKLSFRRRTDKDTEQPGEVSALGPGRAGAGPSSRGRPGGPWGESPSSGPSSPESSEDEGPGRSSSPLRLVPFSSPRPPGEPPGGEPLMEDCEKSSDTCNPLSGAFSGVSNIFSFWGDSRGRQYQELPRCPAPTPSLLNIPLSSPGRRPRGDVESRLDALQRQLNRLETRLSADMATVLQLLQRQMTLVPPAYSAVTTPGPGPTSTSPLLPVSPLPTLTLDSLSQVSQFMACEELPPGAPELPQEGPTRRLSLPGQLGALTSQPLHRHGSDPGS

| Structure (SMILES) | hERG current change (%, negative = inhibition) at 10uM [%] |
| --- | --- |
| COc1ccccc1CNC(=O)c1cnn2c(C(F)F)cc(C)nc12 | -26.4 |
| Cc1ccc(C(=O)N/C(=C\c2ccccc2)C(=O)NCc2cccnc2)cc1 | -71.9 |
| COc1cccc(-n2nnnc2SCC(=O)Nc2ccc(NC(C)=O)cc2)c1 | 17.5 |
| CC(C)N(CCO)Cc1nc(C(c2ccccc2)c2ccccc2)no1 | 9.82 |
| O=C(c1ccc([N+](=O)[O-])cc1)N1CCC(n2nnc3cc(F)ccc32)CC1 | -71.9 |
| COc1cccc(C(CC(=O)NCCN2CCOCC2)NS(=O)(=O)c2ccc(C)cc2)c1OC (stereo not drawn) | 5.97 |
| Nc1ccc(-n2nncc2-c2ccc(Cl)cc2)cc1 | -35.9 |
| O=C(CSC1=NS(=O)(=O)c2cc(Cl)ccc2N1)NCc1ccccc1 | 8.6 |
| O=C(COc1ccccc1)NCC(=O)NC1CCCCC1 | 26.1 |
| COc1ccc(Cl)cc1NC(=O)c1cc(-c2ccccc2)on1 | 23.1 |
| COc1ccccc1OC(=O)c1cc(Cl)nc2ccccc12 | 4.45 |
| Cc1ccccc1-c1nc(SCc2ccccn2)c2c(=O)n(C)c(=O)n(C)c2n1 | 28.7 |
| CCOC(=O)c1csc(NC(=O)CC2CCCC2)n1 | -17.4 |
| Cc1cc(C(=O)CN2C(=O)C(=O)N(C3CCCC3)C2=O)c(C)n1CCc1ccc(F)cc1 | -38.1 |
| O=C(Nc1nnc(-c2ccc(F)cc2)o1)c1cccc([N+](=O)[O-])c1 | -2.84 |
| CSC(=S)N/N=C/c1ccc(N(C)C)cc1 | 15 |
| CCn1cc(CNC(=S)Nc2cccc(Cl)c2C)cn1 | 9.81 |
| Nc1nonc1-n1nnc(C(=O)N/N=C/c2ccc3c(c2)OCO3)c1-c1ccccc1 | 17.3 |
| CCCCN(CC)CCCNC(=O)c1cn(C)c2ccc(S(=O)(=O)N(C)C3CCCCC3)cc2c1=O | -73.2 |
| Cc1cccc[n+]1CC(=O)c1ccc(NC(=O)c2ccccc2)cc1.[Br-] | 28.6 |
| Cc1cccc(C)c1OCCCN1CCOCC1.Cl | -1.08 |
| Clc1ccccc1-c1nc2ccccc2[nH]1 | -18.4 |
| CCOc1ccccc1NC(=O)CSc1nnc(CNC(=O)c2cccs2)o1 | -3.92 |

| Structure (SMILES) | hERG current change (%, negative = inhibition) at 10uM [%] |
| --- | --- |
| CN1CCN(CCC(=O)Nc2ccccc2)CC1 | -5.19 |
| Cc1cccc(N2N=C(C(=O)Nc3nc(C)cs3)CCC2=O)c1 | 5.36 |
| COC(=O)c1cc(NC(=O)Nc2cccc(Cl)c2)ccc1Cl | 8.99 |
| Cc1cccc(COC(=O)CCCNC(=O)c2ccc(Cl)cc2)c1 | -35.9 |
| CN(C)c1cccc2c(S(=O)(=O)NCc3ccc(S(N)(=O)=O)cc3)cccc12 | -0.0683 |
| COc1ccccc1NS(=O)(=O)c1ccc(C)c(C(=O)NCC(c2ccco2)N2CCCCC2)c1 (stereo not drawn) | -44.9 |
| COc1ccc(C(=O)N(Cc2ccccc2)c2cccc(C)c2)cc1S(=O)(=O)N1CCOCC1 | -35.8 |
| COCC(=O)NNC(=O)Cc1ccc(Cl)cc1 | 20 |
| CCC(CO)NCC#Cc1ccccc1.Cl (stereo not drawn) | -0.65 |
| CC1(C)C2CCC1(C)C(OC(=O)c1ccc(O)cc1)C2 (stereo not drawn) | 4.06 |
| Cc1cc(C)nc(Nc2ncn[nH]2)n1 | -73.3 |
| N#CCC(=O)N/N=C/c1coc2ccccc2c1=O | -1.24 |
| CCOC(=O)c1ccc2c(c1)nc(SCC(=O)NC(C)C)n2CC | 3.95 |
| CC(C)C(=O)N(Cc1cc(=O)[nH]c2ccccc12)c1ccccc1 | 7.64 |
| O=C(O)c1cc(S(=O)(=O)N2CCCc3ccccc32)ccc1Cl | 17.6 |
| Cc1ccc(N2CC(C(=O)NCC3CCCO3)CC2=O)cc1Cl (stereo not drawn) | 11.1 |
| COc1ccc(NC(=O)c2cccc3cccnc23)cc1S(N)(=O)=O | 29.2 |
| Cc1ccc(OC(=O)c2cc(C)nn2C(C)(C)C)cc1 | 6.98 |
| O=C(NCc1ccc(F)cc1)C(=O)NCC(c1ccco1)N1CCOCC1 (stereo not drawn) | 1.3 |
| O=C1NC2(CCC3(CC2)OCCO3)NN1c1ccccc1 | -36.9 |
| CCNC(=S)NNC(=O)Cc1ccccc1 | 23.9 |
| COc1ccc(C(=O)NNC(=S)NC(=O)c2ccc(Cl)cc2)cc1 | 20 |
| O=C(Nc1ccc(F)cc1)Nc1sccc1-c1nc2ccccc2s1 | 1.38 |

| Structure (SMILES) | hERG current change (%, negative = inhibition) at 10uM [%] |
| --- | --- |
| O=C(NCC1CCC(C(=O)O)CC1)c1cccnc1 (stereo not drawn) | 24 |
| COc1nc(-c2ccncc2)nc2ccccc12 | -1.59 |
| Cc1cccc(-c2nc(NCCCN(C)C)c3ccccc3n2)c1.Cl | -30 |
| Cc1ccc(CNC(=O)C2CCC(=O)N(CCc3ccc(Cl)cc3)C2)cc1 (stereo not drawn) | -40.2 |
| CCc1cc(CNC(=O)c2cccc(OC3CCN(S(C)(=O)=O)CC3)c2)on1 | -70.3 |
| CCOC(=O)C1(C)/C(=N/Nc2cccc(Cl)c2)C(=O)C(=O)N1c1ccccc1 (stereo not drawn) | 6.3 |
| OCCN(CCO)c1ncnc2c1sc1nc(N3CCOCC3)c3c(c12)CCCC3 | -13.3 |
| NC(=O)c1ccc[n+](Cc2cccc3ccccc23)c1.[Br-] | 13 |
| CC1CCc2cc(F)ccc2N1C(=O)c1ccncc1 (stereo not drawn) | 7.7 |
| Cc1sc(NC(=O)c2ccc(F)cc2)c(CN2CCCCCC2)c1C | -22.9 |
| O=C(C1CC(c2ccccc2O)=NO1)N1CCc2ccccc2C1 (stereo not drawn) | 3.29 |
| CCc1nnc(NS(=O)(=O)c2ccc(NC(=O)c3cc(Cl)ccc3OC)cc2)s1 | 24.8 |
| CC(C)NC(=S)NNc1nc2ccccc2s1 | 9.59 |
| O=C(CSc1ncn[nH]1)Nc1ccc(Cl)c(Cl)c1 | 0.453 |
| Clc1ccc(Oc2ncnc3oc(-c4ccccc4)cc23)cc1 | 4.39 |
| CCOc1ccc(NS(=O)(=O)c2ccc(C(=O)NCC(c3ccc(OC)cc3)N3CCOCC3)cc2)cc1 (stereo not drawn) | -12.6 |
| O=C(O)CN1C(=O)c2ccc(Oc3ccc([N+](=O)[O-])cc3)cc2C1=O | 23.2 |
| COc1ccc(NC(=O)Cn2nnc(C(=O)Nc3ccccc3C)c2N)cc1 | 8.71 |
| CCC(CO)NC(=O)c1ccc(-c2nn(C)c(=O)c3ccccc23)cc1 (stereo not drawn) | -0.0744 |
| CN(C)c1ccc(CNC2CC(C)(C)NC(C)(C)C2)cc1 | 15.5 |
| CCC(=O)Nc1ccc(NC(=O)c2ccccn2)cn1 | 8.72 |
| CCOc1ccccc1N1CCN(Cc2cccc(OC)c2OC)CC1 | -17 |
| CC(C)(C)CC(C)(C)c1ccc(O)c(CN2CCN(CCC#N)CC2)c1 | 13.9 |

| Structure (SMILES) | hERG current change (%, negative = inhibition) at 10uM [%] |
| --- | --- |
| O=C(CN1C(=O)C2CC=CCC2C1=O)Nc1nnc(SCc2ccc(F)cc2)s1 (stereo not drawn) | -11.4 |
| CCOC(=O)c1c(N)sc(C(=O)N(CC)CC)c1C | 6.82 |
| Cc1cc(Cl)cc2c1NC(=O)[C@]21[C@@H]2C(=O)N(Cc3ccccc3)C(=O)[C@@H]2[C@@H]2CCCN21 | -17.9 |
| O=C(NCCOc1ccccc1F)c1ccccc1SCc1ccc(F)cc1 | -5.72 |
| CCc1c(C)nc(SCC(=O)c2ccc(C)c(C)c2)[nH]c1=O | 5.78 |
| Cc1cc(C(=O)N/N=C/C=C/c2ccc3c(c2)OCO3)n[nH]1 | -14.6 |
| O=C(Nn1cnnc1)c1ccc(F)cc1 | 10.8 |
| COc1ccc(/C=C2\SC(=S)N(C(C)C(=O)NC3C=CS(=O)(=O)C3)C2=O)cc1 (stereo not drawn) | -5.61 |
| C=C(C)C(=O)O[C@H]1C/C(C)=C\C(=O)/C=C(\C)[C@H](O)[C@@H]2OC(=O)C(=C)[C@@H]21 | -1.92 |
| CCCC1(C(=O)OCC)NC(c2ccc(OC)cc2OC)C2C(=O)N(c3ccc4c(c3)OCCO4)C(=O)C21 (stereo not drawn) | -0.743 |
| CCN1CCc2nc(N)sc2C1 | -4.7 |
| O=S(=O)(c1ccc2nnn(OCc3ccccc3)c2c1)N1CCOCC1 | -31.1 |
| O=c1oc2ccccc2c(Nc2cccc3ccccc23)c1[N+](=O)[O-] | 5.56 |
| COCCN(C(=O)CCC(=O)Nc1cc(C)on1)C(C(=O)NC1CCCC1)c1ccccc1F (stereo not drawn) | 26.9 |
| Cn1c(NNC(=O)c2ccc(C(C)(C)C)cc2)cc(=O)n(C)c1=O | 17.3 |
| COc1cc(C=NCC2OCCc3ccccc32)cc(OC)c1 (stereo not drawn) | 8.95 |
| CCc1nn(CC(=O)Nc2ccc(Br)c(C)c2)c(=N)s1.Cl | -45.7 |
| O=C(C1CCN(C2CC(=O)N(c3cccc(Cl)c3)C2=O)CC1)N1CCCCCC1 (stereo not drawn) | 7.44 |
| COc1ccc(Cl)cc1Nc1cc(C)nc2ccccc12 | -73 |
| COc1ccc(NC(=O)Cn2nnc(-c3ccccc3NC(=O)c3ccco3)n2)cc1 | -12.8 |
| COC(=O)COc1ccc2cccc(-n3cnnn3)c2c1 | 12.5 |
